For assay [1], the system named is HSkMC (human skeletal muscle cells). Put plainly: cytotoxicity call (relative viability < 0.9). The note with it: 10 µM.
Assay [2] deals with HepG2. Put plainly: cytotoxicity call (relative viability < 0.9). The note with it: 10 µM.
The test system of assay [3] is S. aureus RN4220. Put plainly: growth inhibition call (relative growth <= 0.2). The note with it: 50 µM.

This note sets out measurements from the antibiotic and cytotoxicity screens of Wong et al. (2023).

This is one part of the list.

For the compound `C[C@@H]1CN([C@@H](C)CO)C(=O)Cc2cc(NS(=O)(=O)c3ccccc3)ccc2O[C@H]1CN(C)CC1CC1`, the cytotoxicity call in assay [1] and in assay [2] was “inactive” throughout. Moreover, the growth inhibition call in assay [3] is “inactive”.

Consider `CS(=O)(=O)N1C[C@@H](O)COC[C@H]2O[C@@H](CC(=O)NCc3ccccc3)CC[C@@H]21`, for which the cytotoxicity call in assay [1] and in assay [2] was “inactive” throughout. In addition, the growth inhibition call in assay [3] was “inactive”.

With `COc1ccc(CN(C)C[C@H]2OCCCC[C@@H](C)Oc3ccc(NC(=O)CCC(F)(F)F)cc3C(=O)N([C@H](C)CO)C[C@@H]2C)cc1`, the cytotoxicity call in assay [1] and in assay [2] was “inactive” throughout. In assay [3], the growth inhibition call was “inactive”.

Regarding `CCc1nc2ccccc2c(C(=O)Nc2cccc(Cl)c2)c1C`, the cytotoxicity call in assay [1] and in assay [2] was “inactive” throughout. The growth inhibition call in assay [3] is “inactive”.

For the compound `C[C@H](CO)N1C[C@H](C)[C@H](CN(C)S(=O)(=O)c2ccc(Cl)cc2)Oc2ccc(NS(=O)(=O)c3cn(C)cn3)cc2C1=O`, the cytotoxicity call in assay [1] and in assay [2] was “inactive” each time. Moreover, the growth inhibition call in assay [3] is “inactive”.

`COc1ccc(NC(=O)Nc2ccc3c(c2)C(=O)N([C@H](C)CO)C[C@@H](C)[C@H](CN(C)C(=O)Nc2ccc4c(c2)OCO4)OCCCC[C@@H](C)O3)cc1`: the cytotoxicity call in assay [1] and in assay [2] was “inactive” throughout. Also, the growth inhibition call in assay [3] is “inactive”.

As for `C[C@@H]1CCCCO[C@@H](CN(C)C(=O)Nc2ccccc2)[C@H](C)CN([C@@H](C)CO)C(=O)c2cc(NC(=O)Nc3ccc4c(c3)OCO4)ccc2O1`, the cytotoxicity call in assay [1] and in assay [2] was “inactive” throughout. Besides, the growth inhibition call in assay [3] was “inactive”.

On to `CS(=O)(=O)c1nnnn1-c1ccc2c(c1)OCO2`, for which the cytotoxicity call in assay [1] and in assay [2] was “inactive” each time. Also, the growth inhibition call in assay [3] was “inactive”.

As to `C[C@@H]1CN([C@H](C)CO)C(=O)c2cc(C#CCc3ccccc3)cnc2O[C@@H]1CN(C)CC1CCOCC1`, the cytotoxicity call in assay [1] and in assay [2] was “inactive” each time. The growth inhibition call in assay [3] was “inactive”.

For `CC(C)NC(=O)Nc1ccc2c(c1)C(=O)N([C@@H](C)CO)C[C@@H](C)[C@H](CN(C)C(=O)Nc1ccc(F)cc1)OCCCC[C@H](C)O2`, the cytotoxicity call in assay [1] and in assay [2] was “inactive” in each case. The growth inhibition call in assay [3] was “inactive”.

Turning to `C[C@@H]1CN([C@@H](C)CO)S(=O)(=O)c2ccc(C#Cc3ccccc3F)cc2O[C@@H]1CN(C)C(=O)Cc1cccnc1`, the cytotoxicity call in assay [1] is “inactive”. In addition, in assay [2], the cytotoxicity call was “active”. Moreover, the growth inhibition call in assay [3] was “inactive”.

For the compound `C[C@H](CO)N1C[C@H](C)[C@H](CN(C)C(=O)Nc2cccc3ccccc23)Oc2ccc(NC(=O)CCC(F)(F)F)cc2CC1=O`, the cytotoxicity call in assay [1] and in assay [2] was “inactive” throughout. The growth inhibition call in assay [3] is “inactive”.

Turning to `C[C@@H]1CN([C@@H](C)CO)C(=O)Cc2cc(NC(=O)C3CC3)ccc2O[C@@H]1CN(C)S(=O)(=O)c1cn(C)cn1`, the cytotoxicity call in assay [1] and in assay [2] was “inactive” in each case. For the same compound, the growth inhibition call in assay [3] was “inactive”.

On to `CN[C@@H]1[C@@H](O)[C@@H](O[C@@H]2[C@@H](O)[C@H](O[C@H]3O[C@H]([C@@H](C)NC)CC[C@H]3N)[C@@H](N)C[C@H]2N)OC[C@]1(C)O`, for which the cytotoxicity call in assay [1] and in assay [2] was “inactive” each time. Also, the growth inhibition call in assay [3] is “inactive”.

For `C[C@@H]1CCCCO[C@H](CN(C)Cc2ccccc2)[C@@H](C)CN([C@@H](C)CO)C(=O)c2cc(NS(=O)(=O)c3ccc(F)cc3)ccc2O1`, the cytotoxicity call in assay [1] and in assay [2] was “inactive” in each case. Besides, in assay [3], the growth inhibition call was “inactive”.

Turning to `COc1ccc(NC(=O)Nc2ccc3c(c2)CC(=O)N([C@@H](C)CO)C[C@H](C)[C@H](CN(C)Cc2ccc(Oc4ccccc4)cc2)O3)cc1`, the cytotoxicity call in assay [1] was “inactive”. Besides, the cytotoxicity call in assay [2] was “active”. In addition, the growth inhibition call in assay [3] is “inactive”.

As for `O=C1O[C@H](c2ccccc2)[C@H](c2ccccc2)N2[C@H]1[C@@H](C(=O)N1CCCCCCC1)[C@]1(C(=O)Nc3ccc(C#CC4(O)CCCCCC4)cc31)[C@H]2c1ccc(O)cc1`, the cytotoxicity call in assay [1] and in assay [2] was “inactive” each time. For the same compound, in assay [3], the growth inhibition call is “inactive”.

Take `Cc1noc(C)c1S(=O)(=O)Nc1ccc2c(c1)CC(=O)N([C@@H](C)CO)C[C@@H](C)[C@@H](CN(C)S(C)(=O)=O)O2`: the cytotoxicity call in assay [1] and in assay [2] was “inactive” in each case. In assay [3], the growth inhibition call was “inactive”.

In the case of `CC(C)NC(=O)Nc1ccc2c(c1)C(=O)N([C@H](C)CO)C[C@@H](C)[C@@H](CN(C)Cc1ccccc1)OCCCC[C@H](C)O2`, the cytotoxicity call in assay [1] and in assay [2] was “inactive” throughout. The growth inhibition call in assay [3] was “inactive”.

`O=C(C[C@@H]1C[C@H]2c3cc(NC(=O)NC4CCCC4)ccc3O[C@H]2[C@H](CO)O1)NCc1ccc2c(c1)OCO2`: the cytotoxicity call in assay [1] and in assay [2] was “inactive” in each case. For the same compound, in assay [3], the growth inhibition call is “inactive”.

As for `O=C(CN1CCOCC1)N[C@H]1CC[C@@H](CCn2cc(C3CC3)nn2)O[C@H]1CO`, in assay [1], the cytotoxicity call was “inactive”. Also, in assay [2], the cytotoxicity call is “active”. The growth inhibition call in assay [3] was “inactive”.

Turning to `COc1ccc(CN(C)C[C@@H]2OCCCC[C@H](C)Oc3ccc(NC(=O)CCC(F)(F)F)cc3C(=O)N([C@@H](C)CO)C[C@H]2C)cc1`, the cytotoxicity call in assay [1] and in assay [2] was “inactive” in each case. The growth inhibition call in assay [3] is “inactive”.

Consider `C[C@H](CO)N1C[C@H](C)[C@@H](CN(C)Cc2ccc(Oc3ccccc3)cc2)Oc2c(NC(=O)c3ccncc3)cccc2C1=O`, for which the cytotoxicity call in assay [1] and in assay [2] was “inactive” throughout. Further, in assay [3], the growth inhibition call was “inactive”.

For the compound `O=C(O)CC(O)(CC(=O)O)C(=O)O.[LiH].[LiH].[LiH]`, the cytotoxicity call in assay [1] and in assay [2] was “inactive” in each case. Further, in assay [3], the growth inhibition call was “inactive”.

Regarding `C[C@H]1CN([C@@H](C)CO)C(=O)Cc2cc(NC(=O)Nc3cccc4ccccc34)ccc2O[C@H]1CN(C)C(=O)Nc1ccc2c(c1)OCO2`, the cytotoxicity call in assay [1] and in assay [2] was “inactive” throughout. The growth inhibition call in assay [3] is “inactive”.

Regarding `Cc1noc(C)c1S(=O)(=O)Nc1cccc2c1O[C@H](CN(C)S(C)(=O)=O)[C@H](C)CN([C@H](C)CO)C2=O`, the cytotoxicity call in assay [1] and in assay [2] was “inactive” in each case. In addition, the growth inhibition call in assay [3] is “inactive”.
